From patent US7652041B2, “Cinnamide and hydrocinnamide derivatives with kinase inhibitory activity” (Millennium Pharmaceuticals, Inc., priority 2005, dated 2010)

tested on: A375 cells; assay: Phospho-ERK ELISA assay; assay type: cell-based; details: Homo sapiens, A-375, 3 hours with inhibitor, anti-p44/42MAPK antibody ELISA, normalized for protein content
Protocol: Inhibition of Raf kinase activity in whole cell systems can be assessed by determining the decrease in phosphorylation of Raf kinase substrates. Any known Raf kinase substrate can be used to measure inhibition of Raf kinase activity in a whole cell system.
In a specific example, A375 cells were seeded in a 96-well cell culture plate (12×10^3 cells/100 μL/well) and incubated overnight at 37° C. Medium was removed, and cells were incubated with Raf kinase inhibitors for 3 hours at 37° C. Medium was removed, and cells were fixed with 4% paraformaldehyde for 15 minutes at room temperature.
Methanol was added for 15 min. Cells were removed and blocked with 10% sheep serum and 1% BSA in PBS overnight at 4° C. Cells were incubated with anti-p44/42MAPK antibody (1:100, Cell Signaling Technologies, #9101L) (20 μL/well) for one hour at room temperature. After washing with PBS three times, cells were stained with anti-rabbit horseradish peroxidase-linked antibody from donkey (1:100, Amersham Bioscience #NA934V) for 1 hour at room temperature. Cells were washed three times with 0.5% Tween-20 in PBS and twice with PBS. 3,3′,5,5′-Tetramethylbenzidine (TMB) liquid substrate system (Sigma, #T8665) (50 μL/well) was added, and cells were incubated for 30-45 minutes at room temperature. Optical density was read at 650 nm. Cells were then washed 3-5 times with PBS to remove color solution. Results were normalized for the protein content in each well using a BCA protein assay kit (Pierce).

`CC(=N)NCc1cc(Oc2cccc(CCC(=O)Nc3ccc(Cl)c(C(F)(F)F)c3)c2)ccn1` [Compound A-52, N-[4-chloro-3-(trifluoromethyl)phenyl]-3-[3-({2-[(ethanimidoylamino)methyl]pyridin-4-yl}oxy)phenyl]propanamide] and `Cc1cnc(-c2cc(Oc3cccc(CCC(=O)Nc4ccc(Cl)c(C(F)(F)F)c4)c3)ccn2)[nH]1` [Compound A-158, N-[4-chloro-3-(trifluoromethyl)phenyl]-3-(3-{[2-(5-methyl-1H-imidazol-2-yl)pyridin-4-yl]oxy}phenyl)propanamide] fall in the same range of IC50: 10 to 25 µM for the first, 10 to 25 µM for the second.

`O=C(CCc1cccc(Oc2ccnc(-c3nc(C(=O)N4CCOCC4)c[nH]3)c2)c1)Nc1ccc(Cl)c(C(F)(F)F)c1` [Compound A-204, N-[4-chloro-3-(trifluoromethyl)phenyl]-3-[3-({2-[4-(morpholin-4-ylcarbonyl)-1H-imidazol-2-yl]pyridin-4-yl}oxy)phenyl]propanamide] and `O=C(CCc1cccc(Oc2ccnc(-c3ncc(CN4CCCC4)[nH]3)c2)c1)Nc1ccc(Cl)c(C(F)(F)F)c1` [Compound A-226, N-[4-chloro-3-(trifluoromethyl)phenyl]-3-[3-({2-[5-(pyrrolidin-1-ylmethyl)-1H-imidazol-2-yl]pyridin-4-yl}oxy)phenyl]propanamide] fall in the same range of IC50: 1 to 10 µM for the first, 1 to 10 µM for the second.

`COc1ccc(NC(=O)CCc2cccc(Oc3ccnc(C4=NCCN4)c3)c2)cc1C(F)(F)F` [Compound A-128, 3-(3-{[2-(4,5-dihydro-1H-imidazol-2-yl)pyridin-4-yl]oxy}phenyl)-N-[4-methoxy-3-(trifluoromethyl)phenyl]propanamide] and `Cc1ccc(NC(=O)CCc2cccc(Oc3ccnc(C4=NCCN4)c3)c2)cc1C(F)(F)F` [Compound A-195, 3-(3-{[2-(4,5-dihydro-1H-imidazol-2-yl)pyridin-4-yl]oxy}phenyl)-N-[4-methyl-3-(trifluoromethyl)phenyl]propanamide] fall in the same range of IC50: 1 to 10 µM for the first, 1 to 10 µM for the second.

`O=C(CCc1cccc(Oc2ccnc(C3=NCCN3)c2)c1)Nc1cc(C(F)(F)F)cc(C(F)(F)F)c1` [Compound A-157, N-[3,5-bis(trifluoromethyl)phenyl]-3-(3-{[2-(4,5-dihydro-1H-imidazol-2-yl)pyridin-4-yl]oxy}phenyl)propanamide] and `O=C(CCc1cccc(Oc2ccnc(C3=NCCN3)c2)c1)Nc1cc(F)cc(C(F)(F)F)c1` [Compound A-108, 3-(3-{[2-(4,5-dihydro-1H-imidazol-2-yl)pyridin-4-yl]oxy}phenyl)-N-[3-fluoro-5-(trifluoromethyl)phenyl]propanamide] fall in the same range of IC50: 1 to 10 µM for the first, 1 to 10 µM for the second.

`O=C(CCc1cccc(Nc2ccnc(C3=NCCN3)c2)c1)Nc1ccc(Cl)c(C(F)(F)F)c1` [Compound A-156, N-[4-chloro-3-(trifluoromethyl)phenyl]-3-(3-{[2-(4,5-dihydro-1H-imidazol-2-yl)pyridin-4-yl]amino}phenyl)propanamide] and `O=C(CCc1cccc(Oc2ccnc(C3=NCCN3)c2)c1)Nc1ccc(C(F)(F)F)c(Cl)c1` [Compound A-255, N-[3-chloro-4-(trifluoromethyl)phenyl]-3-(3-{[2-(4,5-dihydro-1H-imidazol-2-yl)pyridin-4-yl]oxy}phenyl)propanamide] fall in the same range of IC50: 1 to 10 µM for the first, 1 to 10 µM for the second.

Compared with `NC1CCCN(c2nccc(Oc3cccc(CCC(=O)Nc4ccc(Cl)c(C(F)(F)F)c4)c3)n2)C1` (stereo not shown) [Compound A-124, 3-(3-{[2-(3-aminopiperidin-1-yl)pyrimidin-4-yl]oxy}phenyl)-N-[4-chloro-3-(trifluoromethyl)phenyl]propanamide], `O=C(CCc1cccc(Oc2ccnc(C3=NCC(O)CN3)c2)c1)Nc1ccc(Cl)c(C(F)(F)F)c1` (stereo not shown) [Compound A-137, N-[4-chloro-3-(trifluoromethyl)phenyl]-3-(3-{[2-(5-hydroxy-1,4,5,6-tetrahydropyrimidin-2-yl)pyridin-4-yl]oxy}phenyl)propanamide] is higher in IC50: 1 to 10 µM for the first, 10 to 25 µM for the second. The first is the more potent here.

`NCc1ccc(NC(=O)CCc2cccc(Oc3ccnc(C4=NCCN4)c3)c2)cc1C(F)(F)F` [Compound A-101, N-[4-(aminomethyl)-3-(trifluoromethyl)phenyl]-3-(3-{[2-(4,5-dihydro-1H-imidazol-2-yl)pyridin-4-yl]oxy}phenyl)propanamide] and `O=C(CCc1cccc(Oc2ccnc(C3=NCCN3)c2)c1)Nc1ccc(C#CCO)c(C(F)(F)F)c1` [Compound A-63, 3-(3-{[2-(4,5-dihydro-1H-imidazol-2-yl)pyridin-4-yl]oxy}phenyl)-N-[4-(3-hydroxyprop-1-yn-1-yl)-3-(trifluoromethyl)phenyl]propanamide] fall in the same range of IC50: 1 to 10 µM for the first, 1 to 10 µM for the second.

`NCc1cc(NC(=O)CCc2cccc(Oc3ccnc(C4=NCCN4)c3)c2)cc(C(F)(F)F)c1` [Compound A-186, N-[3-(aminomethyl)-5-(trifluoromethyl)phenyl]-3-(3-{[2-(4,5-dihydro-1H-imidazol-2-yl)pyridin-4-yl]oxy}phenyl)propanamide] and `N#Cc1cc(NC(=O)CCc2cccc(Oc3ccnc(C4=NCCN4)c3)c2)cc(C(F)(F)F)c1` [Compound A-117, N-[3-cyano-5-(trifluoromethyl)phenyl]-3-(3-{[2-(4,5-dihydro-1H-imidazol-2-yl)pyridin-4-yl]oxy}phenyl)propanamide] fall in the same range of IC50: 1 to 10 µM for the first, 1 to 10 µM for the second.

First: C/C(=C\C(=O)Nc1ccc(Cl)c(C(F)(F)F)c1)c1cccc(Oc2ccnc(C3=NCCN3)c2)c1 [Compound B-1, (2E)-N-[4-chloro-3-(trifluoromethyl)phenyl]-3-(3-{[2-(4,5-dihydro-1H-imidazol-2-yl)pyridin-4-yl]oxy}phenyl)but-2-enamide]
Second: O=C(/C=C/c1cccc(Oc2ccnc(C3=NCCN3)c2)c1)Nc1cccc(C(F)(F)F)c1 [Compound B-7, (2E)-3-(3-{[2-(4,5-dihydro-1H-imidazol-2-yl)pyridin-4-yl]oxy}phenyl)-N-[3-(trifluoromethyl)phenyl]acrylamide]
The IC50 of the first is higher: 10 to 25 µM for the first, no more than 1 µM for the second.

`COC(=O)c1cnc(-c2cc(Oc3cccc(CCC(=O)Nc4ccc(Cl)c(C(F)(F)F)c4)c3)ccn2)[nH]1` [Compound A-170, methyl 2-{4-[3-(3-{[4-chloro-3-(trifluoromethyl)phenyl]amino}-3-oxopropyl)phenoxy]pyridin-2-yl}-1H-imidazole-5-carboxylate] and `COC[C@@H]1CNC(c2cc(Oc3cccc(CCC(=O)Nc4ccc(Cl)c(C(F)(F)F)c4)c3)ccn2)=N1` [Compound A-248, N-[4-chloro-3-(trifluoromethyl)phenyl]-3-[3-({2-[(4S)-4-(methoxymethyl)-4,5-dihydro-1H-imidazol-2-yl]pyridin-4-yl}oxy)phenyl]propanamide] fall in the same range of IC50: 1 to 10 µM for the first, 1 to 10 µM for the second.

`CC(C)(C)c1cccc(NC(=O)/C=C/c2cccc(Oc3ccnc(C4=NCCN4)c3)c2)c1` [Compound B-5, (2E)-N-(3-tert-butylphenyl)-3-(3-{[2-(4,5-dihydro-1H-imidazol-2-yl)pyridin-4-yl]oxy}phenyl)acrylamide] and `O=C(CCc1cccc(Oc2ccnc(C3=NCCN3)c2)c1)Nc1cccc(C2CC2)c1` [Compound A-76, N-(3-cyclopropylphenyl)-3-(3-{[2-(4,5-dihydro-1H-imidazol-2-yl)pyridin-4-yl]oxy}phenyl)propanamide] cannot be ordered by IC50: no more than 1 µM for the first, 1 to 10 µM for the second.

`CNC(=O)c1cc(Oc2cccc(CCC(=O)Nc3ccc(CN)c(C(F)(F)F)c3)c2)ccn1` [Compound A-50, 4-[3-(3-{[4-(aminomethyl)-3-(trifluoromethyl)phenyl]amino}-3-oxopropyl)phenoxy]-N-methylpyridine-2-carboxamide] and `CN(C)C(=O)C1CNC(c2cc(Oc3cccc(CCC(=O)Nc4ccc(Cl)c(C(F)(F)F)c4)c3)ccn2)=N1` (stereo not shown) [Compound A-187, 2-{4-[3-(3-{[4-chloro-3-(trifluoromethyl)phenyl]amino}-3-oxopropyl)phenoxy]pyridin-2-yl}-N,N-dimethyl-4,5-dihydro-1H-imidazole-4-carboxamide] fall in the same range of IC50: 10 to 25 µM for the first, 10 to 25 µM for the second.

First: O=C(CCc1ccc(Oc2ccnc(C3=NCCN3)c2)cc1)Nc1ccc(Cl)cc1 [Compound A-106, N-(4-chlorophenyl)-3-(4-{[2-(4,5-dihydro-1H-imidazol-2-yl)pyridin-4-yl]oxy}phenyl)propanamide]
Second: O=C(CCc1ccc(Oc2ccnc(C3=NCCN3)c2)c(Cl)c1)Nc1ccc(Cl)c(C(F)(F)F)c1 [Compound A-127, 3-(3-chloro-4-{[2-(4,5-dihydro-1H-imidazol-2-yl)pyridin-4-yl]oxy}phenyl)-N-[4-chloro-3-(trifluoromethyl)phenyl]propanamide]
The IC50 of the first is higher: 10 to 25 µM for the first, 1 to 10 µM for the second.

`CNC(=O)c1cc(Oc2cccc(/C=C(\C)C(=O)Nc3cccc(C(C)(C)C)c3)c2)ccn1` [Compound B-6, 4-(3-{(1E)-3-[(3-tert-butylphenyl)amino]-2-methyl-3-oxoprop-1-en-1-yl}phenoxy)-N-methylpyridine-2-carboxamide] and `O=C(CCc1cccc(Oc2ccnc(C3=NCCN3)c2)c1)Nc1cc(OCCN2CCCC2)cc(C(F)(F)F)c1` [Compound A-220, 3-(3-{[2-(4,5-dihydro-1H-imidazol-2-yl)pyridin-4-yl]oxy}phenyl)-N-[3-(2-pyrrolidin-1-ylethoxy)-5-(trifluoromethyl)phenyl]propanamide] fall in the same range of IC50: 1 to 10 µM for the first, 1 to 10 µM for the second.
